{"source": "paper PMC4336329", "about": "(PLoS ONE, 2015)", "note": "The campaign covered roughly 310,000 compounds. About 2,200 (0.71%) showed an effect of 50% or more. The effect is printed as a negative number. This is one part of the list.", "data": [{"molecular_target": "human ether-à-go-go-related gene (hERG) potassium channel (human, UniProt Q12809)", "sequence (Q12809 whole entry, looked up)": "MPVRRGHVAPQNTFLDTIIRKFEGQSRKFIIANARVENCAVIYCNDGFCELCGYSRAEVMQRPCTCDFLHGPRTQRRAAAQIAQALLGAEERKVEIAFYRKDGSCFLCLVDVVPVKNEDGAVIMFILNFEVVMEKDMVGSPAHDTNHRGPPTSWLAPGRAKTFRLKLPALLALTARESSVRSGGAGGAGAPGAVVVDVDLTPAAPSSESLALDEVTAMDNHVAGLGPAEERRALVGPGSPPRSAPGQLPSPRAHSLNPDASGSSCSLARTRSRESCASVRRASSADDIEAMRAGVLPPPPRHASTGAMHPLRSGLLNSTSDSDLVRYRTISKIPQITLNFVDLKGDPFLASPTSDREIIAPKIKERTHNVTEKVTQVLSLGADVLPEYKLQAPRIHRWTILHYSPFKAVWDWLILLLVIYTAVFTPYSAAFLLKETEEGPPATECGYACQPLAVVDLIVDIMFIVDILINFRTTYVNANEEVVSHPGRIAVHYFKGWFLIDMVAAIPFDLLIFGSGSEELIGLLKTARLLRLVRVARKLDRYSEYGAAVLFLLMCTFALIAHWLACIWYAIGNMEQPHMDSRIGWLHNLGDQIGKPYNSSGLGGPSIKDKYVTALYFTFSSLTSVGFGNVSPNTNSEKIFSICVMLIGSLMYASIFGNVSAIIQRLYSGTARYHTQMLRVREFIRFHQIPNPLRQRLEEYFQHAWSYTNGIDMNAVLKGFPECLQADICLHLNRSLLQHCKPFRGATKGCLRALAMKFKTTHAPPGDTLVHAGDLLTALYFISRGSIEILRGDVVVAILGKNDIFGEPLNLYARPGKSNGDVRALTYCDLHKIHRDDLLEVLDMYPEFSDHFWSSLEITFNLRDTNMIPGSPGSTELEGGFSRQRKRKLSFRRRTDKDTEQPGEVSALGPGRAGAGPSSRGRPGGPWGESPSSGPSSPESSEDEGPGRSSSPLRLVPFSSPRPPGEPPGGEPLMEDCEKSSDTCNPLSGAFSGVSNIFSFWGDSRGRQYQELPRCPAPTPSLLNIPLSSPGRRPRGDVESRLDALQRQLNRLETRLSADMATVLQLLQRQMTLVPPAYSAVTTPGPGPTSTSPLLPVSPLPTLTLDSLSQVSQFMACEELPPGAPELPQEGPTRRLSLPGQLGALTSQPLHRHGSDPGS", "test": "primary screen, population patch clamp on CHO cells stably expressing hERG", "units": {"hERG current change (%, negative = inhibition) at 1uM": "%"}, "values": [{"molecule": "COc1cccc(/C=N/NC(=O)C(C)Sc2ccccc2)c1", "note": "(stereo not drawn)", "hERG current change (%, negative = inhibition) at 1uM": 11.1}, {"molecule": "CN(C(=O)CSc1nnc(NC2CCCCC2)s1)C1CCS(=O)(=O)C1", "note": "(stereo not drawn)", "hERG current change (%, negative = inhibition) at 1uM": 7.89}, {"molecule": "CCn1c(-c2ccc(N)cc2)nc2ccccc21", "hERG current change (%, negative = inhibition) at 1uM": 17.3}, {"molecule": "CCN(CC)S(=O)(=O)c1ccc(NC(=O)C(C)N(c2ccc(OC)cc2)S(C)(=O)=O)cc1", "note": "(stereo not drawn)", "hERG current change (%, negative = inhibition) at 1uM": 3.34}, {"molecule": "Cc1cc(Cl)ccc1NC(=S)NCCC(c1ccccc1)c1ccccc1", "hERG current change (%, negative = inhibition) at 1uM": 12.8}, {"molecule": "Cc1ccc(/C=N/n2c(C)cc(C)c(C#N)c2=O)o1", "hERG current change (%, negative = inhibition) at 1uM": 10.2}, {"molecule": "Cc1ccc(CNC(=O)CCCn2c(=O)c3ccccc3n(CC(=O)NC3CCCC3)c2=O)cc1", "hERG current change (%, negative = inhibition) at 1uM": 3.03}, {"molecule": "O=C(Nc1ccccc1C(=O)N1CCOCC1)C1CCC(=O)N1C1CCCC1", "note": "(stereo not drawn)", "hERG current change (%, negative = inhibition) at 1uM": 19.1}, {"molecule": "COc1ccc(-c2cccc(NC(=O)c3ccco3)c2)nn1", "hERG current change (%, negative = inhibition) at 1uM": 15.7}, {"molecule": "CC(=O)N1c2ccccc2NC2=C(C(=O)CCC2)C1c1cccnc1", "note": "(stereo not drawn)", "hERG current change (%, negative = inhibition) at 1uM": 5.36}, {"molecule": "O=C(Nc1ccc(-c2csc(Nc3ccccc3)n2)cc1)c1cccc(C(F)(F)F)c1", "hERG current change (%, negative = inhibition) at 1uM": 13.8}, {"molecule": "O=S(=O)(c1ccccc1)N1CCN(c2nnc(-c3ccccc3)c3ccccc23)CC1", "hERG current change (%, negative = inhibition) at 1uM": 2.37}, {"molecule": "COCCNC(=O)c1ccccc1NC(=O)Cc1ccccc1", "hERG current change (%, negative = inhibition) at 1uM": 4.94}, {"molecule": "Cc1ccc(S(=O)(=O)N2CCN(C)CC2)cc1C(=O)NC1CCCCC1", "hERG current change (%, negative = inhibition) at 1uM": 0.22}, {"molecule": "Cc1cc(C)cc(NC(=O)CSc2nc3[nH]c(=O)cc(O)c3s2)c1", "hERG current change (%, negative = inhibition) at 1uM": 13}, {"molecule": "COC(=O)C1CCN(C(=O)COC(=O)CNC(=O)c2ccc(Cl)cc2Cl)CC1", "hERG current change (%, negative = inhibition) at 1uM": -0.261}, {"molecule": "CSc1ncc(C(=O)Nc2cccc(Cl)c2C)c(C)n1", "hERG current change (%, negative = inhibition) at 1uM": 9.23}, {"molecule": "O=C(NNC(=O)C1CCN(S(=O)(=O)c2ccc(Cl)cc2)CC1)c1ccc(Cl)cc1", "hERG current change (%, negative = inhibition) at 1uM": 4.45}, {"molecule": "Cc1nc(-c2cccnc2)sc1C(=O)Nc1ccc(Cl)cc1", "hERG current change (%, negative = inhibition) at 1uM": 8.8}, {"molecule": "Cc1cccc(CC(=O)NCC(=O)NCc2cc(=O)n(C)c(=O)n2C)c1", "hERG current change (%, negative = inhibition) at 1uM": 15.9}, {"molecule": "CC/C(=C\\C(=O)c1ccncc1)Nc1ccc(O)cc1", "hERG current change (%, negative = inhibition) at 1uM": -0.704}, {"molecule": "CCC(=O)OCc1cc2cccc(C)c2[nH]c1=O", "hERG current change (%, negative = inhibition) at 1uM": 6.42}, {"molecule": "Cc1ccc(F)c(C2C3C=CCC(c4cccc(-c5ccc(N(C)C)cc5)c4)C3C(=O)N2Cc2ccccc2)c1", "note": "(stereo not drawn)", "hERG current change (%, negative = inhibition) at 1uM": 11.5}, {"molecule": "O=C(CCc1ccccc1)Nc1ccccc1[N+](=O)[O-]", "hERG current change (%, negative = inhibition) at 1uM": 6.5}, {"molecule": "CC1Cc2cc(S(=O)(=O)CCC(=O)NCc3ccco3)ccc2N1C(=O)C1CC1", "note": "(stereo not drawn)", "hERG current change (%, negative = inhibition) at 1uM": 15.3}, {"molecule": "CC(NS(=O)(=O)c1ccc(Cl)c(Cl)c1)C(=O)OCC(=O)Nc1ccc2c(c1)OCO2", "note": "(stereo not drawn)", "hERG current change (%, negative = inhibition) at 1uM": 17.2}, {"molecule": "COC(=O)c1ccc(COc2ccc(C(=O)c3ccccc3)cc2)o1", "hERG current change (%, negative = inhibition) at 1uM": 8.37}, {"molecule": "On1c(-c2ccc(Cl)cc2Cl)nc2ncccc21", "hERG current change (%, negative = inhibition) at 1uM": 10.9}, {"molecule": "COc1ccc(NC(=O)CN(C)C(=O)c2cc3c(s2)CCC3)cc1", "hERG current change (%, negative = inhibition) at 1uM": 2.68}, {"molecule": "COc1ccccc1N1CCN(C(=O)CCc2ccccc2)CC1", "hERG current change (%, negative = inhibition) at 1uM": 14.6}, {"molecule": "COC(=O)c1ccc(Nc2nc(N3CCOCC3)nc(N3CCOCC3)n2)cc1.Cl", "hERG current change (%, negative = inhibition) at 1uM": 6.18}, {"molecule": "COc1ccc(Cc2nnc(Nc3ccc4c(c3)OCCO4)[nH]c2=O)cc1", "hERG current change (%, negative = inhibition) at 1uM": 12.9}, {"molecule": "CN(C)CCOc1cc(Cl)cc(Cl)c1", "hERG current change (%, negative = inhibition) at 1uM": 6.47}, {"molecule": "C/C(=N\\NC(=O)c1[nH]c2c([N+](=O)[O-])cc(C)cc2c1-c1ccccc1)c1cccnc1", "hERG current change (%, negative = inhibition) at 1uM": 11.8}, {"molecule": "CC1CCN(Cc2nc(-c3ccc(Cl)cc3)no2)CC1", "hERG current change (%, negative = inhibition) at 1uM": 9.77}, {"molecule": "C=CCOc1cc(C)nc(-c2ccccc2O)n1", "hERG current change (%, negative = inhibition) at 1uM": 0.0391}, {"molecule": "CC(C)CCNC(=O)CN(CC1CCCO1)C(=O)CCC(=O)Nc1ccccn1", "note": "(stereo not drawn)", "hERG current change (%, negative = inhibition) at 1uM": 2.16}, {"molecule": "C/C(CC(=O)Nc1ccc(N(C)C)cc1)=N\\NC(=O)c1ccccc1O", "hERG current change (%, negative = inhibition) at 1uM": 14.9}, {"molecule": "CCOC(=O)Cc1csc(NC(=O)c2ccc(N3CCOCC3)cc2[N+](=O)[O-])n1", "hERG current change (%, negative = inhibition) at 1uM": 3.6}, {"molecule": "CC(CN1CCCCC1)OC(=O)/C=C/c1ccccc1.Cl", "note": "(stereo not drawn)", "hERG current change (%, negative = inhibition) at 1uM": -43.6}, {"molecule": "Cn1nc(-c2ccc(Cl)cc2)nc2c(=O)n(C)c(=O)nc1-2", "hERG current change (%, negative = inhibition) at 1uM": -4.03}, {"molecule": "O=C(NCc1ccc2c(c1)OCO2)c1cccnc1", "hERG current change (%, negative = inhibition) at 1uM": 12.8}, {"molecule": "Cc1csc(SCC(=O)NC(=O)C2CCCCC2)n1", "hERG current change (%, negative = inhibition) at 1uM": 19.2}, {"molecule": "Cc1ccc2c(c1)N(C)/C(=C/c1cccc[n+]1C)S2.[I-]", "hERG current change (%, negative = inhibition) at 1uM": -16.2}, {"molecule": "O=C(O)C1=CC[C@@H](c2ccc(Cl)cc2)N(S(=O)(=O)c2ccc(Cl)cc2)[C@H]1c1ccc(F)cc1", "hERG current change (%, negative = inhibition) at 1uM": 11.4}, {"molecule": "Cc1cc(C)cc(C(=O)N2CCN(c3ccccn3)CC2)c1", "hERG current change (%, negative = inhibition) at 1uM": 9.08}, {"molecule": "CC(C)Cn1c(=O)c(-[n+]2ccccc2)c([O-])c2ccccc21", "hERG current change (%, negative = inhibition) at 1uM": -3.91}, {"molecule": "OC(CN1C2=NCCN2c2ccccc21)c1ccc(Br)cc1", "note": "(stereo not drawn)", "hERG current change (%, negative = inhibition) at 1uM": -63}, {"molecule": "CC(C)c1ccc(/C=C/C(=O)NCCC2=CCCCC2)cc1", "hERG current change (%, negative = inhibition) at 1uM": 5.19}, {"molecule": "C=CCOc1ccccc1CN1CCC(Oc2cc(C(=O)NC3CC3)ccc2OC)CC1", "hERG current change (%, negative = inhibition) at 1uM": -66.6}, {"molecule": "CCn1c(COc2ccccc2C)nnc1SCc1nc2ccccc2c(=O)[nH]1", "hERG current change (%, negative = inhibition) at 1uM": 10.1}, {"molecule": "Cn1c(=O)cc(N)n(-c2ccccc2)c1=O", "hERG current change (%, negative = inhibition) at 1uM": 9.32}, {"molecule": "COc1ccccc1/C=C/C=N/n1c(-c2cc(C)[nH]n2)n[nH]c1=S", "hERG current change (%, negative = inhibition) at 1uM": 18.7}, {"molecule": "Cc1ccc(C(=O)OCC(=O)Nc2ccc3c(c2)OCO3)c(O)c1", "hERG current change (%, negative = inhibition) at 1uM": 5.93}, {"molecule": "COc1cccc(/C(N)=N/OC(=O)Cc2ccccc2[N+](=O)[O-])c1", "hERG current change (%, negative = inhibition) at 1uM": 7.37}, {"molecule": "COc1ccc(CN(CC2CCC(C(=O)O)CC2)C(=S)Nc2ccccc2OC)cc1", "note": "(stereo not drawn)", "hERG current change (%, negative = inhibition) at 1uM": 13.4}, {"molecule": "CCN(CC)c1ncnc2c1[nH]c1ccccc12", "hERG current change (%, negative = inhibition) at 1uM": -8.73}]}]}
